Patent publication US20240034757A1 (OXFORD UNIVERSITY INNOVATION, published 2024)
Read-outs that look alike come from different tables or passages of the source.

T1: P1156_IXORI (Ixodes ricinus, UniProt V5HBW0 29-108)
T1 sequence: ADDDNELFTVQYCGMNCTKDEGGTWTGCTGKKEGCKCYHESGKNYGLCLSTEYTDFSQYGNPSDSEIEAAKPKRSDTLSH

T2: P1243_AMBAM (Amblyomma americanum, UniProt A0A0C9S461 26-123)
T2 sequence: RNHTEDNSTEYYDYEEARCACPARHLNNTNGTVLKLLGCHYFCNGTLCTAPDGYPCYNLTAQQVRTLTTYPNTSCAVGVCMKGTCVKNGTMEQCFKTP

B1: CXCL5_HUMAN (ligand)
chain: not shown
B2: CCL20_HUMAN (ligand)
chain: not shown
B3: CXCL8_HUMAN (ligand)
chain: not shown

Key:
P1156_IXORI [1] = target: T1, P1156_IXORI; assay: BLI
P1156_IXORI [2] = target: T1, P1156_IXORI; assay: BLI [Cont.) C]
P1243_AMBAM [3] = target: T2, P1243_AMBAM; assay: BLI
P1243_AMBAM [4] = target: T2, P1243_AMBAM; assay: BLI; remark: listed apart in the source
P1156_IXORI [5] = target: T1, P1156_IXORI; assay: BLI; remark: listed apart in the source

Row | Binder | Kd (P1156_IXORI [1]) | Kd (P1156_IXORI [2]) | Kd (P1243_AMBAM [3]) | Kd (P1243_AMBAM [4]) | Kd (P1156_IXORI [5])
1 | B1 | 39.9 nM | 71.9 nM | – | – | –
2 | B2 | – | – | 8.34 nM | 8.33 nM | –
3 | B3 | – | 4.67 nM | – | – | 4.6 nM
